{"source": "paper PMC12820563", "about": "“FoxP3 forms a head-to-head dimer in vivo and stabilizes its multimerization on adjacent microsatellites”", "note": "The list shows a part of the results.", "data": [{"target": "T1, MBP-FoxP1dN (Mus musculus, UniProt P58462 326-579)", "T1 sequence": "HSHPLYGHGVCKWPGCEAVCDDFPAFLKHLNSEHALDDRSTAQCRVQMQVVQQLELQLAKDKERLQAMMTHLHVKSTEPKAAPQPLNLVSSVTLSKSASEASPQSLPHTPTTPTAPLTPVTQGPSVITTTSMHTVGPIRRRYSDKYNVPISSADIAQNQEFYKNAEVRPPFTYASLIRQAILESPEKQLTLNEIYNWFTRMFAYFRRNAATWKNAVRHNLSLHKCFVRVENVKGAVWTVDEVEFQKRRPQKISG", "test": "PD-seq (MBP pull-down with sequencing); 20 mM Tris-HCl pH 7.5, 100 mM NaCl, 1.5 mM MgCl2, 0.4 uM protein, 0.1 uM dsDNA library, 30 min, room temperature, amylose pull-down; high values mean tight binding", "settings": "protein: recombinant; tags: His6-MBP; chain copies: 2; dsDNA, one strand shown", "in_short": "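His6-MBP-tagged mouse FoxP3 or FoxP1 fragment lacking the N-terminus, expressed in E. coli, was mixed at 0.4 µM with 0.1 µM Klenow-filled double-stranded degenerate DNA library. Incubation was 30 min at room temperature in Tris pH 7.5 buffer with NaCl and MgCl2. Complexes were caught on amylose resin and washed three times; DNA was released with proteinase K, PCR-barcoded and Illumina-sequenced. Binding is reads-per-million enrichment, pull-down over input, with replicates pooled.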", "values": [{"sequence": "GATGATTGTTCTCCCAGCTGATGAATTTGATCTCTCGAGTAAACAAATTTTCCTAATCTTTCTGTTCAAGCGCCATCTAC", "binding signal": "0.786 RPM ratio (pull-down/input)"}, {"sequence": "GATGATTGTTCTCCCAGCTGATGAATTCCCGCCTTCGAGTAAACAAATTTTCCTAATCTTTCTGTTCAAGCGCCATCTAC", "binding signal": "0.932 RPM ratio (pull-down/input)"}, {"sequence": "GATGATTGTTCTCCCAGCTGATGAATTGATATTGTCGAGTAAACAAATTTTCCTAATCTTTCTGTTCAAGCGCCATCTAC", "binding signal": "2.35 RPM ratio (pull-down/input)"}, {"sequence": "GATGATTGTTCTCCCAGCTGATGAATTTTTAATATCGAGTAAACAAATTTTCCTAATCTTTCTGTTCAAGCGCCATCTAC", "binding signal": "1.24 RPM ratio (pull-down/input)"}, {"sequence": "GATGATTGTTCTCCCAGCTGATGAATTTCATATCTCGAGTAAACAAATTTTCCTAATCTTTCTGTTCAAGCGCCATCTAC", "binding signal": "0.89 RPM ratio (pull-down/input)"}, {"sequence": "GATGATTGTTCTCCCAGCTGATGAATTAATGCTGTCGAGTAAACAAATTTTCCTAATCTTTCTGTTCAAGCGCCATCTAC", "binding signal": "1.37 RPM ratio (pull-down/input)"}, {"sequence": "GATGATTGTTCTCCCAGCTGATGAATTAGTAAATTCGAGTAAACAAATTTTCCTAATCTTTCTGTTCAAGCGCCATCTAC", "binding signal": "1.2 RPM ratio (pull-down/input)"}, {"sequence": "GATGATTGTTCTCCCAGCTGATGAATTTAGGCCTTCGAGTAAACAAATTTTCCTAATCTTTCTGTTCAAGCGCCATCTAC", "binding signal": "0.957 RPM ratio (pull-down/input)"}, {"sequence": "GATGATTGTTCTCCCAGCTGATGAATTGAATGCTTCGAGTAAACAAATTTTCCTAATCTTTCTGTTCAAGCGCCATCTAC", "binding signal": "1.1 RPM ratio (pull-down/input)"}, {"sequence": "GATGATTGTTCTCCCAGCTGATGAATTATCTAACTCGAGTAAACAAATTTTCCTAATCTTTCTGTTCAAGCGCCATCTAC", "binding signal": "0.938 RPM ratio (pull-down/input)"}, {"sequence": "GATGATTGTTCTCCCAGCTGATGAATTCTTTATATCGAGTAAACAAATTTTCCTAATCTTTCTGTTCAAGCGCCATCTAC", "binding signal": "1.02 RPM ratio (pull-down/input)"}, {"sequence": "GATGATTGTTCTCCCAGCTGATGAATTCACAAAGTCGAGTAAACAAATTTTCCTAATCTTTCTGTTCAAGCGCCATCTAC", "binding signal": "0.841 RPM ratio (pull-down/input)"}, {"sequence": "GATGATTGTTCTCCCAGCTGATGAATTTTGGCGTTCGAGTAAACAAATTTTCCTAATCTTTCTGTTCAAGCGCCATCTAC", "binding signal": "0.983 RPM ratio (pull-down/input)"}, {"sequence": "GATGATTGTTCTCCCAGCTGATGAATTATCTCATTCGAGTAAACAAATTTTCCTAATCTTTCTGTTCAAGCGCCATCTAC", "binding signal": "1.03 RPM ratio (pull-down/input)"}, {"sequence": "GATGATTGTTCTCCCAGCTGATGAATTTTGGTAATCGAGTAAACAAATTTTCCTAATCTTTCTGTTCAAGCGCCATCTAC", "binding signal": "1.46 RPM ratio (pull-down/input)"}, {"sequence": "GATGATTGTTCTCCCAGCTGATGAATTAACCACTTCGAGTAAACAAATTTTCCTAATCTTTCTGTTCAAGCGCCATCTAC", "binding signal": "0.924 RPM ratio (pull-down/input)"}, {"sequence": "GATGATTGTTCTCCCAGCTGATGAATTGCGTTATTCGAGTAAACAAATTTTCCTAATCTTTCTGTTCAAGCGCCATCTAC", "binding signal": "1.27 RPM ratio (pull-down/input)"}, {"sequence": "GATGATTGTTCTCCCAGCTGATGAATTCTAAGGTTCGAGTAAACAAATTTTCCTAATCTTTCTGTTCAAGCGCCATCTAC", "binding signal": "0.801 RPM ratio (pull-down/input)"}, {"sequence": "GATGATTGTTCTCCCAGCTGATGAATTACCGGGGTCGAGTAAACAAATTTTCCTAATCTTTCTGTTCAAGCGCCATCTAC", "binding signal": "0.823 RPM ratio (pull-down/input)"}, {"sequence": "GATGATTGTTCTCCCAGCTGATGAATTCTCAACTTCGAGTAAACAAATTTTCCTAATCTTTCTGTTCAAGCGCCATCTAC", "binding signal": "0.844 RPM ratio (pull-down/input)"}, {"sequence": "GATGATTGTTCTCCCAGCTGATGAATTCACTTAGTCGAGTAAACAAATTTTCCTAATCTTTCTGTTCAAGCGCCATCTAC", "binding signal": "0.871 RPM ratio (pull-down/input)"}, {"sequence": "GATGATTGTTCTCCCAGCTGATGAATTTCTGTAATCGAGTAAACAAATTTTCCTAATCTTTCTGTTCAAGCGCCATCTAC", "binding signal": "1.49 RPM ratio (pull-down/input)"}, {"sequence": "GATGATTGTTCTCCCAGCTGATGAATTCAAGGCCTCGAGTAAACAAATTTTCCTAATCTTTCTGTTCAAGCGCCATCTAC", "binding signal": "0.822 RPM ratio (pull-down/input)"}, {"sequence": "GATGATTGTTCTCCCAGCTGATGAATTTGCCGTTTCGAGTAAACAAATTTTCCTAATCTTTCTGTTCAAGCGCCATCTAC", "binding signal": "0.923 RPM ratio (pull-down/input)"}, {"sequence": "GATGATTGTTCTCCCAGCTGATGAATTACACACTTCGAGTAAACAAATTTTCCTAATCTTTCTGTTCAAGCGCCATCTAC", "binding signal": "1.26 RPM ratio (pull-down/input)"}, {"sequence": "GATGATTGTTCTCCCAGCTGATGAATTACGGCTATCGAGTAAACAAATTTTCCTAATCTTTCTGTTCAAGCGCCATCTAC", "binding signal": "0.95 RPM ratio (pull-down/input)"}, {"sequence": "GATGATTGTTCTCCCAGCTGATGAATTACACGGCTCGAGTAAACAAATTTTCCTAATCTTTCTGTTCAAGCGCCATCTAC", "binding signal": "0.917 RPM ratio (pull-down/input)"}, {"sequence": "GATGATTGTTCTCCCAGCTGATGAATTCAGTAATTCGAGTAAACAAATTTTCCTAATCTTTCTGTTCAAGCGCCATCTAC", "binding signal": "1.02 RPM ratio (pull-down/input)"}, {"sequence": "GATGATTGTTCTCCCAGCTGATGAATTATTGGTGTCGAGTAAACAAATTTTCCTAATCTTTCTGTTCAAGCGCCATCTAC", "binding signal": "1.41 RPM ratio (pull-down/input)"}, {"sequence": "GATGATTGTTCTCCCAGCTGATGAATTGCCTTGTTCGAGTAAACAAATTTTCCTAATCTTTCTGTTCAAGCGCCATCTAC", "binding signal": "0.911 RPM ratio (pull-down/input)"}, {"sequence": "GATGATTGTTCTCCCAGCTGATGAATTTAAGCAATCGAGTAAACAAATTTTCCTAATCTTTCTGTTCAAGCGCCATCTAC", "binding signal": "1.22 RPM ratio (pull-down/input)"}, {"sequence": "GATGATTGTTCTCCCAGCTGATGAATTAAACCTTTCGAGTAAACAAATTTTCCTAATCTTTCTGTTCAAGCGCCATCTAC", "binding signal": "0.928 RPM ratio (pull-down/input)"}, {"sequence": "GATGATTGTTCTCCCAGCTGATGAATTTACACTCTCGAGTAAACAAATTTTCCTAATCTTTCTGTTCAAGCGCCATCTAC", "binding signal": "1.33 RPM ratio (pull-down/input)"}, {"sequence": "GATGATTGTTCTCCCAGCTGATGAATTGGCGAATTCGAGTAAACAAATTTTCCTAATCTTTCTGTTCAAGCGCCATCTAC", "binding signal": "0.896 RPM ratio (pull-down/input)"}, {"sequence": "GATGATTGTTCTCCCAGCTGATGAATTGATTTTTTCGAGTAAACAAATTTTCCTAATCTTTCTGTTCAAGCGCCATCTAC", "binding signal": "1.25 RPM ratio (pull-down/input)"}, {"sequence": "GATGATTGTTCTCCCAGCTGATGAATTGAATACGTCGAGTAAACAAATTTTCCTAATCTTTCTGTTCAAGCGCCATCTAC", "binding signal": "0.971 RPM ratio (pull-down/input)"}, {"sequence": "GATGATTGTTCTCCCAGCTGATGAATTGCTTGCCTCGAGTAAACAAATTTTCCTAATCTTTCTGTTCAAGCGCCATCTAC", "binding signal": "1.04 RPM ratio (pull-down/input)"}, {"sequence": "GATGATTGTTCTCCCAGCTGATGAATTTATAGTTTCGAGTAAACAAATTTTCCTAATCTTTCTGTTCAAGCGCCATCTAC", "binding signal": "1.11 RPM ratio (pull-down/input)"}, {"sequence": "GATGATTGTTCTCCCAGCTGATGAATTGCTACTTTCGAGTAAACAAATTTTCCTAATCTTTCTGTTCAAGCGCCATCTAC", "binding signal": "1.23 RPM ratio (pull-down/input)"}, {"sequence": "GATGATTGTTCTCCCAGCTGATGAATTTTTTCTCTCGAGTAAACAAATTTTCCTAATCTTTCTGTTCAAGCGCCATCTAC", "binding signal": "0.83 RPM ratio (pull-down/input)"}]}]}
